The campaign covered roughly 110,000 compounds. About 230 (0.21%) showed an effect of 50% or more. This is one part of the list.
target: DPAP1 (Plasmodium falciparum, UniProt Q8IIJ9); assay: primary screen, percent inhibition; read by cleavage of a fluorogenic dipeptide substrate; higher = more effect of the substance; design: species or system P. falciparum D10 trophozoite lysates; single well
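Also: 30 min substrate incubation versus DMSO and 10 µM JCP410 controls.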

DPAP1, sequence (Q8IIJ9 whole entry, looked up): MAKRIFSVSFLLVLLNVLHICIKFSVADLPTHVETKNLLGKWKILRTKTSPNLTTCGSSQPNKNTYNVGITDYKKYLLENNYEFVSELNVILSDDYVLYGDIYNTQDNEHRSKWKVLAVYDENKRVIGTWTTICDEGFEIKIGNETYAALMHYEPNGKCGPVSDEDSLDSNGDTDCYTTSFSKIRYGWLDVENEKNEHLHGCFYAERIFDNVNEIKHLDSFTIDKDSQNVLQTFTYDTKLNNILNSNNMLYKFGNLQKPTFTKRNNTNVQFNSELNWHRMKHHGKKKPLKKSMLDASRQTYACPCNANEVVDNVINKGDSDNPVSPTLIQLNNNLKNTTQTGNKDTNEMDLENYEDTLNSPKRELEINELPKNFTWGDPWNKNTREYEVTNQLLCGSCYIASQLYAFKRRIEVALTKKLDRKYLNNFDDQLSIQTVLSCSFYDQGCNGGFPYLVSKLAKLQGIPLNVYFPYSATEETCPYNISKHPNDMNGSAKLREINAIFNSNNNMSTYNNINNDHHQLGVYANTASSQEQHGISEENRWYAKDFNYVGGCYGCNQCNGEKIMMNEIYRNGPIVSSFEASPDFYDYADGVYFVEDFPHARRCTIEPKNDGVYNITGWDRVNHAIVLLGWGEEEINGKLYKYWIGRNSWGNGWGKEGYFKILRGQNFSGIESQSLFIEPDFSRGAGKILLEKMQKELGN

| Structure (SMILES) | % Inhibition @ 10 uM [%] |
| --- | --- |
| O=C(Nc1nc(-c2ccc(S(=O)(=O)N3CCCC3)cc2)cs1)c1ccco1 | 10.5 |
| Cc1nnc(NC23CC4CC(CC(C4)C2)C3)o1 | -2.78 |
| CC(C)=NOc1nc(N)nc(N(C)C)n1 | 12 |
| O=C(O)c1cccc(NS(=O)(=O)c2ccc(C3CCCCC3)cc2)c1 | 14.3 |
| CCOc1ccc(C2C3=C(CC(C)(C)CC3=O)N(CC(=O)O)C3=C2C(=O)CC(C)(C)C3)cc1 | -2.25 |
| Cc1ccc(OCCCCCN2CCOCC2)cc1 | -0.546 |
| Cc1cccc(NC(=O)C2CCCN2S(=O)(=O)c2cccc3nsnc23)n1 (stereo not shown) | -0.465 |
| CN(C)c1ccc(-c2c(C#N)c(N)nc(S)c2C#N)cc1 | 7.55 |
| CCC(=O)Nc1ccc(C(=O)c2ccccc2)cc1 | 3.24 |
| Cc1cc(C)c(N2C(=O)C3C4C=CC(C)(O4)C3C2=O)c(C)c1 (stereo not shown) | 2.08 |
| CCOc1ccc(C(=O)C2=C(O)C(=O)N(CCc3ccccc3)C2c2ccncc2)cc1 (stereo not shown) | 3.57 |
| Cn1c(C(C)(O)C(O)c2ccccc2)nc2ccccc21 (stereo not shown) | -2.09 |
| NC(=O)c1cc(NC(=O)c2ccc([N+](=O)[O-])cc2)cc(C(N)=O)c1 | 2.54 |
| CCCN1COc2ccc3c(C)c(CC)c(=O)oc3c2C1 | 2.09 |
| O=C(Nc1cccnc1Cl)c1cnn2c(C(F)(F)F)cc(-c3cccs3)nc12 | -1.69 |
| Cn1nc(C2CC2)cc1C(=O)NCCc1ccccc1 | -0.0108 |
| O=C(Nc1cc(Cl)ccc1Cl)c1ccc(Br)o1 | -0.687 |
| Cc1ccc2c(c1)c(/C=C1/C(=N)N3C=CSC3=NC1=O)c(C)n2Cc1ccc2c(c1)OCO2 | 5.44 |
| CCc1ccc(C2N=C3Oc4ccccc4C=C3C(=O)N2)cc1 (stereo not shown) | 1.68 |
| O=C(NC(=O)c1ccc(Cl)cc1)Nc1cccc(OC(F)F)c1 | 3.5 |
| CCOc1cc(C2C3=C(O)CC(c4ccc(OC)cc4)CC3=NC(C)=C2C(=O)OC)ccc1O (stereo not shown) | -0.053 |
| COc1cc(-c2nnc3n2N=C(c2ccccc2)CS3)cc(OC)c1OC | 2.89 |
| CC(C)c1ccc(/C=C2\N=C(c3ccc(F)cc3)OC2=O)cc1 | -4.46 |
| COc1ccc2c(c1)C(=O)N(c1ccc(C)cc1)C(=O)/C2=C/N1CCOCC1 | 4.74 |
| Cc1ccc(Nc2ccccc2C(=O)N2CCOCC2)c(C)c1 | 1.67 |

| Structure (SMILES) | % Inhibition @ 10 uM [%] |
| --- | --- |
| CC(=O)c1cc(-c2ccc(F)cc2)n(CC(=O)NCc2cccs2)c1C | 3.07 |
| CC(=O)N[C@H]1[C@H](Oc2nc3cc(C)ccc3o2)O[C@H](CO)[C@@H](O)[C@@H]1O | 1.64 |
| Clc1cccc(CN2CCN(c3ccccn3)CC2)c1Cl | 0.605 |
| CC12CN3CC(C)(CN(C1)C3(C)CCC(=O)O)C2=O (stereo not shown) | -4.21 |
| CC[C@@H](C)[C@H](NC(=O)c1cccnc1)C(=O)N[C@@H](CCc1ccccc1)C(=O)COCc1ccccc1 | 3.66 |
| CCOc1ccc(CCNc2ccc3nnc(-c4ccccc4)n3n2)cc1OCC | -6.68 |
| CC(C)(C)NCc1nc(-c2ccccc2)no1 | -1.81 |
| COc1cc2c(C(=O)N3CCCCCC3)cn(CC(C)C)c(=O)c2cc1OC | 0.505 |
| CN(Cc1ccco1)S(=O)(=O)c1nnc(NC(=O)C2CCCCC2)s1 | -1.26 |
| O=C(NCCCN1CCCC1=O)c1nnc(-c2ccc3c(c2)OCO3)o1 | 1.23 |
| Cc1cc(Cl)ccc1OCC(=O)NCc1ccccc1 | -3.37 |
| CC1=CC2=NC(=O)/C(=C\c3ccc(OCc4ccc5c(c4)OCO5)cc3)C(=N)N2O1 | 3.63 |
| Cn1c(C(=O)NCCN2CCOCC2)cc2sccc21 | -4.85 |
| COc1ccccc1-n1c(N)c(C#N)c2nc3ccccc3nc21 | 3.31 |
| COc1ccc(NC(=O)c2ccc(N(Cc3ccc(Cl)cc3)S(C)(=O)=O)cc2)c(OC)c1 | 2.02 |
| c1ccc(N2CCN(Cc3ccco3)CC2)cc1 | -0.0404 |
| CCC1CCCCN1C(=O)c1sc2nc(C)nc(N(CC)CC)c2c1C (stereo not shown) | 5.85 |
| CC(=O)Nc1nc2n(n1)C(c1ccccc1)C=C(c1ccccc1)N2 (stereo not shown) | 2.56 |
| CCN(CC)S(=O)(=O)c1cc(C(=O)Nc2ccccc2OC)ccc1C | -3.55 |
| O=C(O)CNc1nc(Oc2ccccc2)nc(Oc2ccccc2)n1 | -2.72 |
| COc1cccc(CNCc2c(C(=O)O)c(C)n(Cc3ccc(Cl)cc3)c2C)c1OC | -1.92 |
| CC(C)NC(=S)N(CCc1ccncc1)C(C)C | 5.47 |
| CCCNC(=O)c1oc2ccc3c(c2c1C)C(=O)CC(C)(c1ccc(F)cc1)O3 (stereo not shown) | 2.84 |
| Cc1ccc(C(=O)N/C(=C\c2cccs2)C(=O)N2CCN(C)CC2)cc1C | -0.968 |
| c1ccc(CN2CCc3ccccc3C2)nc1 | -4.14 |

| Structure (SMILES) | % Inhibition @ 10 uM [%] |
| --- | --- |
| Fc1ccc2[nH]c3c(N4CCOCC4)ncnc3c2c1 | -1.85 |
| O=C1NC(=O)/C(=C\c2ccc(-c3ccc(Cl)cc3)o2)S1 | 6.08 |
| CC(=O)Nc1ccc(NS(=O)(=O)c2ccc3c(c2)OCCO3)cc1 | -7.5 |
| CCCCNC(=O)C1CCC(CNS(=O)(=O)c2cccc3nsnc23)CC1 (stereo not shown) | -4.34 |
| CC(C)NC(=O)c1cc(-c2ccc(Cl)c(Cl)c2)on1 | -3.77 |
| CCCc1nc2c3ccccc3nc(NCc3ccccc3)n2n1 | 2.6 |
| Cc1ccc(S(=O)(=O)NCC2CCN(S(=O)(=O)c3ccc(C)cc3)CC2)cc1 | 3.33 |
| Cc1nnc2n1N=CC=C(c1ccccc1)S2 | -3.5 |
| CCOC(=O)c1c(C)[nH]c(C)c1S(=O)(=O)NCc1ccc(C)o1 | 2.09 |
| COc1cc(CNC(=O)c2ccc(Cn3nc(C)c(Cl)c3C)o2)cc(OC)c1 | 0.317 |
| CCN(Cc1ccccc1)Cc1ccc2c(c1)c1ccccc1n2CC | -6 |
| CCCCCCCC(=O)c1c(C)[nH]c(C(=O)OCC)c1C | -4.31 |
| Cc1ccccc1C(=O)N1CCC(C(=O)NC(C)C)CC1 | -5.32 |
| CC(C)NCC(O)c1ccc(C2CCCC2)cc1 (stereo not shown) | -3.9 |
| Cc1cc(Cl)ccc1-n1nnnc1SCc1nc2ccccc2[nH]1 | 2.17 |
| c1ccc(NCn2nnc3ccccc32)nc1 | 3.32 |
| Cc1cccc(C(=O)Nc2ccc(S(=O)(=O)Nc3cnc4ccccc4n3)cc2)c1 | -3.26 |
| CC1=C(C)CC(C(=O)Nc2ccccc2F)C(C(=O)O)C1 (stereo not shown) | 2.5 |
| O=C(Nc1ccccc1)c1ccc(COc2ccccc2)cc1 | -0.312 |
| O=c1oc(-c2cccs2)nc2sc3c(c12)CCC3 | -1.5 |
| N#CC1=C(N)Oc2cc(O)ccc2C1c1ccc2ccccc2c1 (stereo not shown) | 9.41 |
| CCCC1CCc2c(O)nc3ccccc3c2O1 (stereo not shown) | 2.48 |
| CC1(C)CC(=O)C2=C(C1)N(c1c(F)cccc1F)C(N)=C(C#N)C2c1ccccc1 (stereo not shown) | -3.46 |
| COc1cc(-c2[nH]nc3c2C(c2ccccc2Br)C(C#N)=C(N)O3)cc(OC)c1OC (stereo not shown) | -1.08 |
| CCOc1cc(CN2CCCCCC2)ccc1OC | -5.41 |

| Structure (SMILES) | % Inhibition @ 10 uM [%] |
| --- | --- |
| O=C1CCCC2=C1C(c1ccc(-c3ccccc3)cc1)C1=C(CCCC1=O)O2 | -2.6 |
| CC(C)(C)NC(=O)c1cccc(Oc2ccc([N+](=O)[O-])cc2)c1 | -4.23 |
| OCCCn1c(-c2ccc(F)cc2)cs/c1=N\c1ccc(Cl)cc1 | -3.95 |
| CC(C)CN(CC(C)C)S(=O)(=O)c1ccc(-c2ccc(O)nn2)s1 | -1.97 |
| Cc1cccc(C(=O)Nc2sc3c(c2C(=O)NCC2CCCO2)CCC3)c1 (stereo not shown) | 6.35 |
| O=C(Cn1cc(S(=O)(=O)Cc2ccccc2F)c2ccccc21)NC1CCCCC1 | 1.25 |
| C=Cc1ccc(Cn2c(C(=O)O)c(CNCc3ccc(C)cc3)c3ccc(C)cc32)cc1 | 0.359 |
| CC1(C)CC(O)=C/C(=N/CCCN2CCCC2=O)C1 | 7.63 |
| Cc1ccc(C2=CC(c3ccccc3OC(F)F)n3nnnc3N2)cc1 (stereo not shown) | 0.219 |
| Cc1ccc(C2N=C(SCCC(C)C)NC(c3ccc(C)cc3)C23C(=O)NC(=O)NC3=O)cc1 (stereo not shown) | 1.5 |
| COc1ccc(/C=C/c2onc(C)c2S(=O)(=O)N2CCC(C(=O)O)CC2)cc1 | -2.17 |
| C=CCOc1ccc(CNCCCSc2nnnn2C)cc1 | 0.596 |
| COc1cc(=O)[nH]c(=O)n1C(=O)Cc1ccccc1 | 0.756 |
| O=C(NCC1CCCO1)c1csc2c1CCCC2 (stereo not shown) | 0.277 |
| CCNc1oc(Cc2cccc3ccccc23)nc1C#N | 3.92 |
| Cc1ccccc1C1CC(=O)N2CN(Cc3ccco3)CSC2=C1C#N (stereo not shown) | 26 |
| N#CC1=C(N)N(c2ccc(C(N)=O)cc2)C2=C(CCC2)C1(C(F)(F)F)C(F)(F)F | -3.9 |
| Cc1ccc(S(=O)(=O)N2CCN(Cc3cc(C(C)C)ccc3O)CC2)cc1 | -3.04 |
| CCOC(=O)C1=C(CN2CCn3cccc3C2C)NC(=O)NC1c1ccc(Cl)cc1 (stereo not shown) | -1.03 |
| COc1ccc2c(c1)C1CC(C)(O2)N(C)C(=O)C1S(=O)(=O)c1ccc(C(C)(C)C)cc1 (stereo not shown) | 2.57 |
| N#CCNC(=O)[C@H](CSCc1cccnc1)NC(=O)c1ccccc1 | -3.49 |
| COC(=O)n1c(SCC(=O)Nc2ccc(Cl)cc2)nc2ccccc21 | -1.22 |
| CC(C)c1cccc(C(C)C)c1OCCN1CCCC1 | 2.7 |
| COc1cc(C2C(C#N)=C(N)OC(C)=C2C(C)=O)cc(OC)c1OC (stereo not shown) | -0.99 |
| Cc1ccccc1CS(=O)(=O)Cc1ccc(C(=O)NC2CCCC2)o1 | 3.24 |
